Measured values as given in the supplement of paper PMC12632987.
Whole data set: some 2,300 sequences, median “median log2 fold change of GCK-ALFA target abundance (FLAG IP / Myc IP barcode read proportion)” near 0.095, cut for the lowest 2% near -0.47. The list shows a part of the results.

B1: LC3A_28_886 (protein)
chain: GEAIESAKKALEEVKKAMAAGNKEPLVLEVKAPSKEEDVEKLIEILEEIAKEASKGIKVHIIIDIDESVSQENKDKIIDHGEEIEKKYPNVTVIFALPES
B2: LC3A_free_46_2426 (protein)
chain: VDIDVDLLLEGDDEEKLKAAVEEIKEAFKKIAEEYNAELEIEVEFSTDPDGNHFAHINIKITSDDLETQQKIANESIDSIDKIAEKYGVSYIISVDIEKK
B3: LC3A_free_46_2314 (protein)
chain: YIGEIILDIFGVDEETAEALVKELEKKFKEIAKKYGLEIEIKVEKYLNEDGTTYVEIDITLKGEDKEKLKEAVNEIISEADKIAEKYGATLVVSYEIEEE
B4: LC3A_free_46_2394 (protein)
chain: IRGEIDILLKGATMEQAREIAEAAVEKIKEEAAKLGIKVEIEVTIERDEDGDVFIRIEVKMDTKDKQQALDILDATMDEALALAKELGIEASAIISVEEE
B5: LC3A_28_1255 (protein)
chain: SEVEESIEKALAEAKAAVEKGEEAVVTIKVPAGVTEEETEKIIEAMDEIAELTASLPSTTIIVDVEAGVAQEHIDKLADKGEELEKKYPHLTVIIALEEE
B6: LC3A_28_1155 (protein)
chain: SAEVEEAKKLIDEDAERDKDEEEVYLEVKITSSVTVEEAREIMDHVEEVVEKLKDKKKIYVVVTFEEPVSQEVLDEVLRRAEEIEEKFPNVDVIIALPED
B7: LC3A_59_2024 (protein)
chain: SEELKELVEKIIENKDNIDKMAETILEGFELVKDDPEALKELEELLVKGLVEAGLLSKELAEEMVNEIKKAYETLKDREEQLKAIKEIITIYLNEEEIEE
B8: LC3A_17_577 (protein)
chain: SEETKKLLEEAVKQLEKAAKLAEKLDPEAAKKVKELLEKVKEAAETKSDLEIAETIAEQMDKVADILDSLEDKDPDATGHASMEADGVSIEAESLALKLE
B9: LC3A_3_1901 (protein)
chain: MEELLARARAVLEARGYSPEAIAAILAELRRLLELGYERVVEEIIRLLEENPTISGEAAVRIARDVLEAAEKEKLSEEELIEFAREEARLAVNENEIEEL
B10: LC3A_free_46_2326 (protein)
chain: YKVEIEIDALHDDKEKMEKFVEELKKKLKEIAEKYNAKIEIEVEISKDEDGSYFARIKIKVYAETLETAEKIKNEIIDSIEEIAEKYNASVLISYEIIKE
B11: LC3A_141_371 (protein)
chain: KTITKTYTYGYMDADQARAKIDAIMADVKKLIEETGGATVTVTTTITTYNEATGETTTETVTETITPENIDLVSEGLLIEVESAALKGKVAITTTITTTE
B12: LC3A_3_1526 (protein)
chain: MEEIRARILALLREAGADEETLATAEEALDLLEARGYLKAQEVLLEEVERLRDASPEVLAWFVEEVLELVRTEDLDEEELSAEIRKIAATALADHEIEEL
B13: LC3A_17_572 (protein)
chain: DEATRALVERTLAVLEEAQAFAATVDAAKAAQVAALIAQLREAAATLSPLEVAETAAELMDQTAEILDSLKAADPDKREHLSMEAEGVAIEAESLALRLE
B14: LC3A_127_188 (protein)
chain: EIEKLIKELLKELEKLSELLSSPDFDLEEAEKLAKKILKLAKELEKLDPRFKPLVEDAKELLKIIEEMKNASPAEQEELKEHALMLVEGMEIEALSLELK
B15: LC3A_28_1009 (protein)
chain: MSVVEKTKKEAEKAIAEAKKGKDAYLEIDITKDTTLEEVKEINEIIEKTAKEISKIKNVKLYVVVNDDSNQENHDIILDSMDKVEKEYPNVSSIIAYTDE
B16: LC3A_28_769 (protein)
chain: MDIEEEVARAKERAKAAVAAGEEDVIVLTVPKGATQEDIDKAIEGLYEIAEIVKDMKRQTIVIDVESGVKQEHIDKLADAAEEIEKKYPNVTVILALDED
B17: LC3A_3_1388 (protein)
chain: FEEIKKETLEELKKFGKSEEVIEKAKEVLDALEEKGYLNAMKTLLEELKELKDASDELLLSFLEDVLEVVTTKDLSEEELVKKIKEEATVTKNESEIEEL
B18: LC3A_13_344 (protein)
chain: SITITADTADELLTKSKAALDANPGSTLNITVTVKNEAEADAVAAALKEIIDHAISKGSTLNITLKGKKDLVNYTALEVGSHIFEKTGKANVTVTTEVVE
B19: LC3A_102_129 (protein)
chain: DPEELKREKLRRVREEVERLLEKDKSLSEEEKERALRLAEELARAALDNALTEIQHGFEDIVAIDRALEALEELEKIDPELAEEIRRIVERAVREFREEL
B20: LC3A_28_776 (protein)
chain: MDIEEEIKKAIEEAKAAKAAGEEAVIEIKVPNGATEEDIEKVIEGMKEIAEITKDMKSTAIVVDVDSGVKQEHLDKLIDAGEEIEKKYPNVNVIFALDED
B21: LC3A_17_542 (protein)
chain: MEEIKKELEELLKKLEKLVEKLAEYDPEKAKKLKKKLEEAKKLIKAGKLKEAAELLAEAAREAAEAWEELEPEYGTEASVYAMEASGLELEAIGILLKLD
B22: LC3A_free_46_2325 (protein)
chain: YLVEIELDALHKDKETMEKFVEELEKKIKEIAEEYNAKIEIEVEIEKDEDGSYYARIKIKVEAETLEKAKEIKNKIIDSIDEIAKKYNASVLISYEIIET
B23: LC3A_28_664 (protein)
chain: SELDERLEEALEEAERAKALGEPTVVTITVRGDATEEEIERVIETLERIAEILAPIEGSAIIIDLDGDVPEEHRDRLIDKGEELEEKYPNVTVIFAIEEE
B24: LC3A_28_1302 (protein)
chain: MSIEEKLEEALKRVKEAAEKGEEVVVTVDITAEEAEENLELILEGLKRLGEEASKAPGAVIIVDLDDDVDEENRNKIIDTADEIEEKYPNVTVIIAIEDD
B25: LC3A_28_727 (protein)
chain: NELEKSLKEALEKAKELAEKGESDVIEITVPGDATEEDIEKLKEALEEIAEIVKDLERVDIIIDVEGGVKQEHIDKIADKAEEIEKKYPNVTVIIALDED
B26: LC3A_28_1271 (protein)
chain: SAIDEELARAMAAAEEAVAAGEPAVITIHVPGGATEEDIEKVIAGLEEIAEKLSSVPDQAIVIDVDSGVKQEHIDKLVDAAEEIEEKYPNVTVIIALDED
B27: LC3A_127_200 (protein)
chain: EKKKLLEKALELAEKALKALQKIPEEGEEAIKKAKELLKELLKLLKEIPELKESAKDVEQAIEILDKLPELSEADREEAIEHLEMIVDGVAIDIESALLK
B28: LC3A_141_382 (protein)
chain: MKKTFKVTFTPEEIQKLFDFMDEVEKAILEMIKESGGKPVKVKVKITAENPKTGEVKVIEEEFTVTEENVDMVVEGIAIEAASLADEIGGTVTVEVELEV
B29: LC3A_28_756 (protein)
chain: MDIEGIIEKAIEEAKEAKEKGEEKVIRIRVPKGATQEDIEKVIKGMEEIAEITKDMESTAILVDIEAGVKQEHIDKLIDAGEEIEKKYPNVTVIFALDED

The binders below were run against MAP1LC3A, Q9H492 (assay: median log2 fold change of GCK-ALFA target abundance (FLAG IP / Myc IP barcode read proportion) (log2 ratio); each designed protein is fused to an ALFA-tag nanobody in HEK293 cells to bring the named protein to FLAG-tagged glucokinase (GCK); Myc marks an untargeted standard; higher = target protein stabilised (more abundant)). Conditions: target protein: 3xFLAG-MCP-GCK-ALFA reporter; HEK293 landing pad (RPLP).
How it was run: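 Sequencing of reverse-transcribed, amplified circular RNA barcodes from anti-FLAG and anti-Myc immunoprecipitates provided the readout for an ALFA-nanobody-fused binder library recombined into HEK293 landing-pad cells. Those cells were induced with 2 μg mL^−1 doxycycline, transfected with a plasmid expressing a FLAG-tagged target and a Myc-tagged standard, and lysed after 48 h. Target abundance is the per-binder median log2 ratio of FLAG to Myc barcode read proportions. Only barcodes at a proportion of ≥10^−7 in both replicates and binders with ≥3 barcodes per replicate were kept, with a 10^−6 pseudocount added before the two replicates were pooled.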

Binder | median log2 fold change
B1 | -0.158
B2 | 0.0526
B3 | -0.102
B4 | 0.0175
B5 | 0.3
B6 | -0.446
B7 | 0.373
B8 | 0.231
B9 | 0.351
B10 | 0.106
B11 | 0.165
B12 | 0.159
B13 | 0.105
B14 | 0.156
B15 | -0.428
B16 | 0.0462
B17 | 0.302
B18 | 0.222
B19 | -0.44
B20 | -0.0907
B21 | -0.71
B22 | -0.0876
B23 | -0.247
B24 | 0.0116
B25 | 0.0944
B26 | -0.33
B27 | 0.0801
B28 | 0.128
B29 | -0.252
